Experimental data taken from article PMC12650729 (Biology, 2025).

Experiments:
CV-B3 3C^pro = CV-B3 3C^pro (Coxsackievirus B3, UniProt P03313); experiment: FRET-based protease assay, CV-B3 3C protease; conditions: 1 mM
Experimental: (§1) The 3C protease of EV-A71 (GenBank: KP861243.1) was also expressed by a recombinant plasmid constructed by us using the same method.
(§2) Based on the cleavage activities of enterovirus 2A and 3C proteases, the fluorescence enhancement due to corresponding peptide cleavage was monitored at 538 nm with excitation at 355 nm by a Synergy H1 microplate reader (BioTek, Norcross, GA, USA). Kinetic measurements for the proteases were performed in a 50 mM MES buffer (pH 6.5) containing different concentrations of fluorescent peptides (FRET-1: Dabcyl-[…]-Edans for CV-A9 and CV-B3 3C^pro; FRET-2: Dabcyl-[…]-Edans for CV-A9 2A^pro; FRET-3: Dabcyl-[…]-Edans for EV-A71 3C^pro). To measure the inhibitory effects of the drugs on protease activity, each drug was separately pretreated with the enzyme for 30 min, and the cleavage of the substrate peptide was monitored by the Synergy H1 microplate reader (BioTek, USA).

EV-A71 3C^pro = experiment: FRET-based protease assay, EV-A71 3C protease
Experimental: as §1, §2

CV-A9 3C^pro = experiment: FRET-based protease assay, CV-A9 3C protease; type: biochemical; conditions: pre-incubated at 25 °C for 30 min
Experimental: as §1
Based on the cleavage activities of enterovirus 2A and 3C proteases, the fluorescence enhancement due to corresponding peptide cleavage was monitored at 538 nm with excitation at 355 nm by a Synergy H1 microplate reader (BioTek, Norcross, GA, USA). Kinetic measurements for the proteases were performed in a 50 mM MES buffer (pH 6.5) containing different concentrations of fluorescent peptides (FRET-1: Dabcyl-[…]-Edans for CV-A9 and CV-B3 3C^pro; FRET-2: Dabcyl-[…] -Edans for CV-A9 2A^pro; FRET-3: Dabcyl-[…] -Edans for EV-A71 3C^pro). To measure the inhibitory effects of the drugs on protease activity, each drug was separately pretreated with the enzyme for 30 min, and the cleavage of the substrate peptide was monitored by the Synergy H1 microplate reader (BioTek, USA).

Compound	inhibition of CV-B3 3C^pro protease activity (CV-B3 3C^pro)	inhibitory effect on 3C^pro of EV-A71 (EV-A71 3C^pro)	IC50 (CV-A9 3C^pro) [µM]
COc1cc(O)c2c(=O)cc(-c3ccc(O)c(OC)c3)oc2c1 [velutin]	almost impossible for the protease to cleave the substrate peptide	favorable inhibitory effects	–
O=C(O[C@@H]1Cc2c(O)cc(O)cc2O[C@@H]1c1ccc(O)c(O)c1)c1cc(O)c(O)c(O)c1 [(−)-epicatechin gallate]	–	no activity	29.5
COc1cc(-c2oc3cc(O)cc(O)c3c(=O)c2O)ccc1O [isorhamnetin]	–	favorable inhibitory effects	–
